± gives the standard deviation of the averaged measurements. This is one part of the list.
Test system: PfAP2-LT AP2 domain (GST-tagged)
Assay: gcPBM binding intensity (ln(normalized median fluorescence intensity)); higher = stronger DNA binding
Outline: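 GST-tagged P. falciparum DNA-binding domains, expressed in E. coli (about 25 μg on average), were applied for 1 h to an Agilent 4 × 180k array of primer-extended double-stranded 36-bp intergenic genomic probes plus negative controls. The binding buffer was 1× PBS with 1% milk, 0.2 mg/ml BSA, 0.5% salmon testes DNA and 0.03% Triton X-100. Bound protein was detected with Alexa488 anti-GST antibody and scanned at 488 nm. Binding intensity is the highest Masliner-normalised natural-log median intensity across replicate spots of either probe orientation.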

Row | Sequence | gcPBM binding intensity (ln)
1 | TAACTTAATAAAAAAAGTACATATATTTTTAATAAA [XGTACX_site2707] | 8.23 ± 0.52
2 | AGTGAATATTACGAAACACACAAAAAAATACATTTC [CACACA_site511] | 9.09 ± 0.38
3 | AAATATAATAATACATTGCACATATATTATATATAT [TGCATGCA_negctrl_site611] | 8.79 ± 0.39
4 | TGTAATAATCTTCATTTCTTTTTTTTTTTTTTTTGT [CACACA_negctrl_site1388] | 8.37 ± 0.66
5 | TTTTGATATATGAATATTAAGTTATATAATATTTTA [TGCATGCA_negctrl_site39] | 8.28 ± 0.43
6 | TATATATATAAATACACACACACAAAAAAAAAAAAA [CACACA_site4930] | 9.61 ± 0.31
7 | AATTTAATTGTGAGAGTGCGTACTGCTCCACATATA | 8.71 ± 0.39
8 | ATGTGTTTGTATATATGTACATATTTATGTTATTTC [XGTACX_site6960] | 9.29 ± 0.47
9 | AAAAAAAAAAAAAAAAAAAAAAAAAAATGAGATACA [GTGCAC_negctrl_site160] | 8.76 ± 0.16
10 | ATCTTATCATTTTAAAGTACATAATTAATTCTTTTT [XGTACX_site3999] | 8.66 ± 0.49
11 | TATAACAAATAAAAATGTACATATATATAATATATA [XGTACX_site6173] | 8.79 ± 0.43
12 | ATAATACCAGAATAGATTTAAATGAATATTTTATTT [CACACA_negctrl_site476] | 8.52 ± 0.58
13 | ATGATATATTTAATAGTGCACTAATTAAAATTATTA [GTGCAC_site9418] | 8.6 ± 0.41
14 | AAAAGGATATATGAAAGTACAAAGGTATAGTATATT [XGTACX_site7385] | 9.14 ± 0.54
15 | TACAGTAAAAATAGTTGTACTTGTTTATTTCTTCTT [XGTACX_site7674] | 8.62 ± 0.38
16 | TAAAATATAATGATCACACATATAAACAAGTGGGTA [CACACA_site4651] | 8.95 ± 0.44
17 | TATTCTAGAATTTTAACACACAAGAATATAAACTTT [CACACA_site6757] | 8.65 ± 0.36
18 | ATTTTTAAATACAGTACACACATGGGTTTAAATTAT [CACACA_site2884] | 8.86 ± 0.39
19 | TCCTATAAACAAATTTGTACATATAAGAATATATTC [XGTACX_site3892] | 8.57 ± 0.39
20 | GGTTATATGATAGGATGTACAATTAAAAGTAAATAT [XGTACX_site5083] | 8.87 ± 0.48
21 | GATTATTTTAGAAGTACACACATTTATATATAATAA [CACACA_site5429] | 8.69 ± 0.45
22 | TATTTATATTTATATACACACATATATACCTATATA [CACACA_site7820] | 8.97 ± 0.47
23 | TATAAACGCACCTACACACACAACGTAAATGCATTG [CACACA_site7120] | 9.55 ± 0.26

Row | Sequence | gcPBM binding intensity (ln)
24 | TATTCAAAACGGTATTGTACAAATTTTATAATTTAA [XGTACX_site6928] | 8.49 ± 0.36
25 | TGAACATTATAGAAAAGTACTTAGTTTTTAAAAAGA [XGTACX_site6864] | 8.56 ± 0.47
26 | TATGGATAAATAAATACACACATAAATTTAAATATA [CACACA_site1282] | 8.96 ± 0.49
27 | GCCGCACCCAGATACGCACACAAGAAAAAAATATTC [CACACA_site3456] | 9.02 ± 0.49
28 | CACACGCACAGACACACACACACACGGATATAAATA [CACACA_site6301] | 10.2 ± 0.38
29 | TTTTTTTTTTTTTTTTGTACATATAAAAATACGTAA [XGTACX_site6003] | 8.32 ± 0.26
30 | TCACTACATTTTGGACGTACACAACTTGATATATTG [XGTACX_site4775] | 9.09 ± 0.4
31 | AAATCTTAACTCTATGCACACATAAAAGTATATAAA [CACACA_site8709] | 8.79 ± 0.38
32 | ATGATATACTTGAGTGTGCACAAACTATTACTTACA | 9.27 ± 0.54
33 | ATTTTGATGATGTATGCACACATTGAAAATGAGAAA [CACACA_site2916] | 8.97 ± 0.57
34 | ACAACATATGTTATCACACACATATAAATATAAATA [CACACA_site7038] | 9.26 ± 0.42
35 | ATATATATATATATATGTACATATTTGATTTTTCTT [XGTACX_site8171] | 9.69 ± 0.13
36 | TATATATCGCCCTTCACACACACACGGATATAAATA [CACACA_site7221] | 9.64 ± 0.2
37 | ATAATAAATATATAATGTACATATTATGTTCTTTAT [XGTACX_site8655] | 8.76 ± 0.37
38 | CGCTCTTATAAATGTTGTACATAAAACTGTTCATTA [XGTACX_site3409] | 8.62 ± 0.49
39 | ATCGGTAATATTAACACACACATTTATATATATTTA [CACACA_site1084] | 9.19 ± 0.37
40 | TTTTGTAGATATTGAAGTACAAAAAAAATGTAAAAG [XGTACX_site5905] | 8.72 ± 0.49
41 | TTTTTTAATATATTATTATAAATATTTTTTATGTGT [GTGCAC_negctrl_site712] | 8.6 ± 0.58
42 | CATAATGTAAATAAGTGTACACATATATAATACATA [XGTACX_site3108] | 9.15 ± 0.35
43 | ATGCGTTAATCTATATATATTATGTATAGATTTTCA [CACACA_negctrl_site1650] | 8.82 ± 0.39
44 | AACATATTTATGATGTGTACCTACATAATAGAATTT [XGTACX_site141] | 8.81 ± 0.41
45 | CTCTACGAATTCATAGTGCAAAGAGCTAATTTTTTC [GTGCAC_site9710] | 8.53 ± 0.38
46 | TCTTTTATGATATTTACACACAAACGTGAGATAGCT [CACACA_site2312] | 9.06 ± 0.3

Row | Sequence | gcPBM binding intensity (ln)
47 | AACATTATGTTTATTTGTACATATAAATATATGTAA [XGTACX_site7389] | 8.49 ± 0.4
48 | GATCATTCAGTTTTATCACACACAATCAAACATATA [CACACA_site8882] | 9.06 ± 0.4
49 | ATATTTTGATAATATTGTACAAAAACATTAAAATGT [XGTACX_site8361] | 8.6 ± 0.4
50 | TATTTAATTACATGAACACACATTATATATTTTTAA [CACACA_site5615] | 8.55 ± 0.45
51 | TATATATATATGTGCACACCAATTGTATGTAATATA [CACACA_site3889] | 9.32 ± 0.2
52 | TTTATATTATTAGAAACACACATTAGATTAAAATTA [CACACA_site3286] | 8.3 ± 0.42
53 | TACATAATAACATGTACACACATTCTTCTATAAATG [CACACA_site4061] | 8.95 ± 0.38
54 | CATTAAAAAGAAAGTTCACACACATATATATGACGG [CACACA_site8836] | 9.17 ± 0.44
55 | ACATAATAAAAATGACGTACAATTTTTTTTTTTCAT [XGTACX_site8340] | 8.66 ± 0.47
56 | ACTACATAATATTAACGTACATATTATAATACTTGC [XGTACX_site954] | 8.9 ± 0.43
57 | ATATAACACATTAGTTGTACTATTTTTAATTGGTGA [XGTACX_site961] | 8.65 ± 0.44
58 | TAGCCCATATGGAATACACACTGAAAATAAAAAAAG [CACACA_site5799] | 8.96 ± 0.57
59 | TTACAATAAATTATAGTGCAATATTTTATTTAATAT | 8.41 ± 0.44
60 | ATGAATAATTAATGATGTACTTAAAAAAAAAAATAT [XGTACX_site6346] | 8.65 ± 0.49
61 | AAAAAAAAAAAAAAAAAAAAAAAAAAAAAAACATAT [GTGCAC_negctrl_site580] | 9.01 ± 0.28
62 | GTTAATATCTTGAACAGTACTCTAAATATCTACATA [XGTACX_site5358] | 8.57 ± 0.41
63 | ATATATTATATTGAATGTACATATATATATTATATA [XGTACX_site8445] | 8.64 ± 0.41
64 | CAATGTTGTACATACACACACACAAAAAAAAAATAA [CACACA_site2407] | 9.6 ± 0.45
65 | TTCAAATTTCCACATACACACCTTGTAGATCTATAT [CACACA_site6270] | 9.03 ± 0.48
66 | ATAAAAAAACACACTCGTACACACATATTTTCTTTC [XGTACX_site6565] | 9.27 ± 0.33
67 | TGCTATAATTTATATACACACAAATATATACACATA [CACACA_site9356] | 8.96 ± 0.4
68 | GATAATAATAAACAACCACACACAAAAAAACAAAAA [CACACA_site9074] | 9.54 ± 0.33
69 | ATATATTTAACAAGATGTACAATTTTATAAAAAATA [XGTACX_site2351] | 8.48 ± 0.46

Row | Sequence | gcPBM binding intensity (ln)
70 | TATATATAAATATTCAGTACATAGTGCTATTAAGTG [XGTACX_site1979] | 8.68 ± 0.36
71 | CCATTATATCTAAGTACACACATTAATTTTTTTTTT [CACACA_site6115] | 8.72 ± 0.38
72 | AGAAATTAATCGAGGTGTACGTACATCCAAATATAT [XGTACX_site7650] | 9.03 ± 0.45
73 | TGAAAAGGAAATTGTTGTACATATGTTTCTTCCTAA [XGTACX_site3932] | 8.56 ± 0.45
74 | AATAGCAATTTGGGGTGTACACACACCTTATTTAAA [XGTACX_site2234] | 8.94 ± 0.54
75 | TTTTTATAAAAAAATAGTACTCGTCTAATCTTATGT [XGTACX_site8532] | 8.48 ± 0.5
76 | TTATGATGGTCTTTATAAGGGCACATTAAATTCGGC [TGCATGCA_negctrl_site166] | 8.44 ± 0.37
77 | AAACTATTCACTATAATACATTAGAAGTGAATAAAA [TGCATGCA_negctrl_site498] | 8.65 ± 0.38
78 | GAGAAGACATTACACAGTACCCAGTAACTCTACGGA [XGTACX_site2000] | 8.96 ± 0.47
79 | GATTATTATGTCCATGCATGTTAATATATATTAATT [TGCATGCA_site837] | 9.02 ± 0.4
80 | AAATTGGGGCTTGTTACACACTTAGTGCGAGTTCTA [CACACA_site582] | 9.12 ± 0.23
81 | TTTTAAAAAACAAACACACACGTAGAAAAAAAAAAA [CACACA_site4608] | 9.04 ± 0.42
82 | AAAATATATATAAATGCATGCATAATGAAATATATA [TGCATGCA_site39] | 9.17 ± 0.28
83 | CTGTATAAAACCAATGCATGTAAATATATTAATATA [TGCATGCA_site511] | 8.81 ± 0.35
84 | GAAATTTTATTTCGGCGGACAAATGTATACTTTCTT [XGTACX_site4238] | 8.99 ± 0.31
85 | ACAAGGAATATAAAAAGTACATAAAATACATAAAAA [XGTACX_site1217] | 8.95 ± 0.51
86 | CCATTTACATTGTGAAGTACTAAAAAAAAATGTAGA [XGTACX_site7882] | 8.59 ± 0.47
87 | ATAATTTGATGGTTAACACACATATATATTATATAT [CACACA_site2449] | 9.17 ± 0.4
88 | TATGGATGTATTCATACATGCACACGTACATATTTA [TGCATGCA_site991] | 9.05 ± 0.22
89 | ATATAAATATAAATATATATGTATAAATATAAATAT [CACACA_negctrl_site247] | 8.86 ± 0.45
